The text below walks through data of article PMC12136788.

The list shows a part of the results.

First the molecules themselves.
T1: UNK ZnF1-3 (human, UniProt Q9C0B0 31-174)
T1 sequence: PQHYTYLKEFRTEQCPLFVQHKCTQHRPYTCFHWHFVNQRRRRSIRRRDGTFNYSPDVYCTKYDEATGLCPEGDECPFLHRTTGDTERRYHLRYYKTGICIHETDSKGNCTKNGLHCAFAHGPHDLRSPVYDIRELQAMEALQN

B1: chr7:140402705:140402706:+_ENSG00000090266_ENST00000247866|hu_hu|motif|central (ssRNA)
RNA: GGGAGUUCUACAGUCCGACGAUCUCCGCUGAAGAACUCGCUCUGGAACACCUGGGAUCUGGUCAGCUGGGGGAACUGUCGGUACCGGGGCUCAAUGUGCACACCACCACCGGCAUGACGGACUCCACCAUCUCCAGCAGUCCGCAACAGAGGAUUGAGCAUCA
B2: chr5:100466915:100466916:-_ENSMUSG00000029328_ENSMUST00000153442|mus_mus|motif|central (ssRNA)
RNA: GGGAGUUCUACAGUCCGACGAUCAGCACAAAUCCAAAUCCUCUUGAUCUUCCCGUGACUGGGUCUGUUUUAAUUGUGCAGUCGGCCACUUCCCCAAAUCGAGACAAAUAUUCAGUCAGAUCUUUCUUGCUUGUAUCCCAGCUCCAACAGAGGAUUGAGCAUCA
B3: chr1:115268999:115269000:-_ENSG00000009307_ENST00000339438|hu_mus|FALSE|FALSE (ssRNA)
RNA: GGGAGUUCUACAGUCCGACGAUCUAAAAGUCUCACGCAAGUUGCAAUCUGCUGUCCAGGCCUCUGUUUGUCACUAAUACUAAAUUCAACCUUAUCUCCUAUUUGAGGAGAAGUAGAUCCUUCCACAUCCUUGGCUUGAAAAGCCAACAGAGGAUUGAGCAUCA
B4: chr17:27085315:27085316:-_ENSG00000173065_ENST00000581407|hu_hu|motif|central (ssRNA)
RNA: GGGAGUUCUACAGUCCGACGAUCACCUAGGAGGGUGAUGUAUGAUGUGUUGCACGUGGAGGGCAGCAGGGCUACCGGUCGGUACCCUGGGUGCUGAAUAUGAAGACUUCGACUCUCUGUGGGAUCGGGGGCUCGGUUGCCAGGCAACAGAGGAUUGAGCAUCA
B5: 46342315_46355519_476_3pUTR_ENSG00000139218_ENST00000369367|human|control|control (ssRNA)
RNA: GGGAGUUCUACAGUCCGACGAUCUGAACCUUAACAUAACCUUCCAAUGCACUGAAUUUAAACACUGCCUGAAAAGGUUUACGGUCAAUAGGACAUGAAGCCAGUGUCUCUGCCCAUUUAAGAAUACAAGUCAUACAGAAGACACAACAGAGGAUUGAGCAUCA
B6: chr6:40197388:40197389:+_ENSMUSG00000057716_ENSMUST00000061740|mus_mus|mus_mus_mus_hu_False|78_88 (ssRNA)
RNA: GGGAGUUCUACAGUCCGACGAUCGAGACACUGGGGUGGAUUUAUUCUCAGUUUGGGUGCUAGCCUCCCACUAAGACUGUUAUUUUGGGAUUCAUGGCCUUGAAUAUCAAGAGGGAAAGGAAGAGGAUGGAAAGAGUCAAGAGUCAACAGAGGAUUGAGCAUCA
B7: chr7:80921385:80921386:+_ENSMUSG00000078670_ENSMUST00000107456|mus_mus|motif|central (ssRNA)
RNA: GGGAGUUCUACAGUCCGACGAUCUAGGGCUGAAAGAACCAGUGUCAAGUCAGGCUCCUGAGCCAGGGUGGAUCUUCCCACCGGCCGCCAUCACCACAACCCCAGUCAGAACUGGAGAACCUGACAGUGGUGGAGCUGGCCAAGCAACAGAGGAUUGAGCAUCA
B8: chr19:16212804:16212805:+_ENSG00000167460_ENST00000300933|hu_mus|hu_hu_hu_mus_False|78_108 (ssRNA)
RNA: GGGAGUUCUACAGUCCGACGAUCAACAAAUAUGCAAUGAAGGAAAGAUGUAACAUGCAAUUAAUUAAAAGCUCAGUCAGAAGGCACAUGGGCAACAAUGAUCACCCCAGCAUUCUCGCUUGGAAUGCUUAAAGACAAUCUGUUCAACAGAGGAUUGAGCAUCA
B9: chr5:92956547:92956548:-_ENSG00000113391_ENST00000395965|hu_hu|motif|central (ssRNA)
RNA: GGGAGUUCUACAGUCCGACGAUCCCAGUGAACCCAUAUUGCUUUGACAGUUGCACUCAUCUAGAAAUAAUGCAAAACGCGGUUUAGAUGUAUAUAUCACGACCCUGGGCUCUGGGAAGAAAACAAUCUAAUGAGGGGCUGGGACAACAGAGGAUUGAGCAUCA
B10: chr9:95013113:95013114:-_ENSG00000196305_ENST00000443024|hu_hu|hu_hu_hu_mus_False|48_48 (ssRNA)
RNA: GGGAGUUCUACAGUCCGACGAUCCUCAGUCAGAAAGGGCGUGUAAGGGGCCAUCAGUCUGCACAGAGAAAGCAGGACACUGAACAGGGUUUCUAGGGCCAUGACACAGUCUUCCACCCCACUCUCACCCUUUAACCUCCUCCUCAACAGAGGAUUGAGCAUCA
B11: 67067385_67067505_86_3pUTR_ENSMUSG00000029223_ENSMUST00000031131|mouse|control|control (ssRNA)
RNA: GGGAGUUCUACAGUCCGACGAUCACAAACCCGAGGAGCCGAAAAAACAGCCGGUGGAGCCGCCCAGGCUGCUGUUAUAAAGCGCCGGCCUCGCUCACUGGGAAAGCCUGAGCAGGGGAGACGGGAGCAGAAACAAGCAGAGGACAACAGAGGAUUGAGCAUCA
B12: 80012782_80013088_745_CDS_ENSG00000169727_ENST00000578552|human|control|control (ssRNA)
RNA: GGGAGUUCUACAGUCCGACGAUCCUUGAGCUUGGUGAGGAUGGCCUGGGUCUGGCUGUCACGCUCUCCUCGCUGCUCGGCAAUCUCUGGGGUGGACUCAGCCUUGCUGACGUAGCUGAGCACAUGAGACCAAUUCUGCAAGUACAACAGAGGAUUGAGCAUCA
B13: chr18:56819859:56819860:+_ENSG00000166562_ENST00000588875|hu_hu|FALSE|FALSE (ssRNA)
RNA: GGGAGUUCUACAGUCCGACGAUCAACUUUGAUUACUCUGUGAACUAUUGGAAUGUCUCGUCCUUCAACUUUAAAAACAACUAUUUCACCAGCUCUGAUUGGGUCUUCCCGGAAAUUUGUGAGGAACAGGAGGUCUCCUCUGUGCAACAGAGGAUUGAGCAUCA
B14: 98119433_98119553_737_CDS_ENSMUSG00000022987_ENSMUST00000023722|mouse|control|control (ssRNA)
RNA: GGGAGUUCUACAGUCCGACGAUCGAGAGAGUCUGUGUCUGUUCUGUGUAGAUGGCGAGAGAAGGUGUCCUCCUGAAGGAAGCGUGGGCUUAGGAGCAUUCCUGUGGAGUUCCUGGGCAUGGACUCCCAGCUUGGACCCUGCCCCAACAGAGGAUUGAGCAUCA

The test addresses T1, UNK ZnF1-3. Nature of the test: nsRBNS (natural sequence RNA bind-n-seq); RBNS binding buffer (assumed for nsRBNS): 25 mM Tris pH 7.5, 150 mM KCl, 3 mM MgCl2, 0.01% Triton X-100, 500 ug/ml BSA, 20 U/ml SUPERase-In, 4 C; UNK is unkempt and MSI1 is Musashi-1; names of the RNAs are library labels; protein concentration not given here; high values mean tight binding.
Molecule B1 gave a binding signal of 0.887 enrichment R.

B2: the binding signal worked out at 1.25 enrichment R.

Molecule B3 had a binding signal of 1.16 enrichment R.

B4 gave a binding signal of 0.947 enrichment R.

B5: the binding signal came out at 1.06 enrichment R.

The molecule B6 registered a binding signal of 1.98 enrichment R.

B7 registered a binding signal of 0.721 enrichment R.

B8 gave a binding signal of 1.1 enrichment R.

B9 came in with a binding signal of 1.61 enrichment R.

The molecule B10 returned a binding signal of 0.684 enrichment R.

Regarding B11, the binding signal stood at 1.91 enrichment R.

Take B12: the binding signal worked out at 0.649 enrichment R.

As to B13, the binding signal amounted to 0.93 enrichment R.

The molecule B14 came in with a binding signal of 1.32 enrichment R.
